# In PubChem BioAssay AID686971 (National Center for Advancing Translational Sciences (NCATS), 2013):
# Several values for one entry are separate records, joined by “and”; a condition that tells them apart may be missing. Identical values can stand only once. The whole screen tested about 360,000 compounds, of which about 7,500 (2.1%) were called active. Inconclusive results, whose numbers are uncertain, are shown with a selection of clear calls. Calls come from the whole dose curve; as a rule, active = well fitted cell-killing curve with a large enough effect; inconclusive = small, poorly fitted or top-dose-only effect, or effect the other way, or another doubt; inactive = no such curve, though single readings can be large or run the other way. Where the call is inconclusive, the potency comes from a doubtful curve fit.
# Experiment: qHTS for induction of synthetic lethality in tumor cells producing 2HG: qHTS for the HT-1080-IDH1KD cell line;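 for activity, negative = toxicity: 0% = DMSO wells and -100% = cell-free medium wells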
# Conditions: HT-1080 IDH1 knockdown viability, ATP luminescence, 48 h; activity, negative = toxicity: at 46.1 µM (top of the series) unless noted
# Procedure, shortened: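 Assay cells: HT-1080 with IDH1 knockdown, 750 per well, RPMI/5% FBS. Exposure: 48 h at 37 °C following 2 h pre-incubation. Read: CellTiter-Glo luminescence; fitted concentration-response, curve class assigned.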
# Potency is the fitted concentration of half-maximal effect; tags give direction and shape of the fitted curve.
SMILES,Potency,"activity, negative = toxicity"
Cc1nc2c(OCc3ccc(C(F)(F)F)cc3)cccn2c1N(C)Cc1cccs1,active: 25.9 µM,–
CCOC(=O)[C@]12CCCC=C1N(Cc1ccccc1)C(=O)[C@H](CC(=O)NCc1cccc(C(F)(F)F)c1)C2,"inconclusive: 29.1 µM [cytotoxic, single point]",–
COc1ccc(N(Cc2cc3ccccc3[nH]c2=O)S(=O)(=O)c2ccc(OC)cc2)cc1,"inconclusive: 18.4 µM [cytotoxic, single point]",–
O=C(Nc1cc(S(=O)(=O)N2CCOCC2)ccc1N1CCOCC1)c1ccc([N+](=O)[O-])s1,–,inactive: 4.81%
COc1cc(C(=O)Oc2ccccc2/C=N/NC(=O)c2ccc(C)cc2)cc(OC)c1OC,–,inconclusive: -35.4% [cytotoxic]
Cc1c(C(=O)O)cccc1-c1ccc(/C=C2\SC(=O)NC2=O)o1,"inconclusive: 11.6 µM [cytotoxic, partial curve]",–
COc1ccc(NC(=O)COC(=O)CC23CC4CC(CC(C4)C2)C3)c([N+](=O)[O-])c1,–,inactive: -7.75%
CCSc1nc2ccccc2c(=O)n1Cc1ccc(F)cc1,–,inactive: -21.3%
Brc1ccc(N=C(c2ccccc2)c2ccncc2)cc1,"inconclusive: 9.2 µM [cytotoxic, partial curve]",–
Cc1ccc2oc(C(=O)NCC(c3ccco3)N3CCCC3)c(C)c2c1 (stereo unspecified),"inconclusive: 18.4 µM [cytotoxic, single point]",–
Cc1ccccc1/C=c1\s/c(=C\C(=O)C(C)(C)C)[nH]c1=O,"inconclusive: 18.4 µM [cytotoxic, partial curve]",–
COC(=O)C(C(=O)OC)c1ccccc1NS(=O)(=O)c1c(C)cc(C)cc1C,"inconclusive: 18.4 µM [cytotoxic, single point]",–
COc1ccc(C(=O)Nc2ccc3nc(N4CCN(C)CC4)cc(C)c3c2)c(OC)c1,"inconclusive: 29.1 µM [cytotoxic, single point]",–
Clc1cccc(Cl)c1Cn1nnc(N2CCCC2)n1,–,inactive: 7.01%
CCOc1cc(C2C(C(=O)c3ccc(C)o3)=C(O)C(=O)N2CCc2ccccc2)ccc1O (stereo unspecified),–,inactive: -15.7%
Cc1cc(Br)ccc1NC(=O)CN(C)C(=O)CSC(=S)N1CCCC1,–,inactive: -0.596%
C(/CCc1ccccc1)=N\Nc1nc2ccccc2[nH]1,"inconclusive: 18.4 µM [cytotoxic, single point]",–
Nc1nc(-c2cccs2)c(NC(=O)c2ccccc2)s1,"inconclusive: 17.8 µM [cytotoxic, single point]",–
C[C@H]1CN([C@@H](C)CO)C(=O)c2cccc(NC(=O)Nc3ccc(C(F)(F)F)cc3)c2O[C@@H]1CN(C)Cc1ccc(Cl)c(Cl)c1,"inconclusive: 23.1 µM [cytotoxic, single point]",–
O=C(NC1CCCC1)C(c1ccsc1)N(Cc1ccccc1)C(=O)Cc1cccs1 (stereo unspecified),–,inactive: -13.6%
CCOc1cc(/C=C/C(=O)c2ccc3c(c2)OCCO3)ccc1OCC(=O)N(C)C,active: 18.4 µM,–
Cc1cccc(CSc2ncc(CO)n2C)c1,–,inactive: -0.506%
CN(C)CCCN1c2ccccc2Sc2ccc(Cl)cc21,"inconclusive: 20 µM [cytotoxic, single point] and inconclusive: 23.1 µM [cytotoxic, single point]",–
CC1(C)CC(=O)C2=C(C1)OC(N)=C(C#N)C2c1cn(-c2ccccc2)nc1-c1ccc(F)cc1 (stereo unspecified),"inconclusive: 29.1 µM [cytotoxic, single point]",–
CCOC(=O)c1ccc(NC(=O)Nc2ccon2)cc1,active: 0.92 µM,–
Cc1cccc(N=N/C(=C\O)C(=O)c2cccs2)c1,active: 13 µM,–

SMILES,Potency,"activity, negative = toxicity"
COc1ccc(S(=O)(=O)Nc2cc(C(=O)NC(C)C)ccc2N2CCOCC2)cc1,"inconclusive: 35.5 µM [cytotoxic, single point]",–
COc1ccccc1NS(=O)(=O)c1cccc(NC(=O)Nc2cccc(Cl)c2)c1,"inconclusive: 18.4 µM [cytotoxic, single point]",–
Cc1cccc(C(=O)Nc2nnc(S(=O)(=O)N3CCC(C)CC3)s2)c1,–,inactive: -0.487%
CN1CCN(C(=O)c2cc(-c3cccc(Cl)c3)on2)CC1,–,inactive: 0.963%
O=C(O)c1ccccc1C=NNc1ccccn1,–,inactive: 10.2%
N#CCCN1CCCN(CCC#N)CCN(CCC#N)CCCN(CCC#N)CC1,–,inactive: 19.1%
O=C(OC12CC3CC(CC(C3)C1)C2)c1ccc(NCc2cc(O)ccc2O)cc1,active: 23.1 µM,–
COc1ccc(N/C(=C2\CCCC2=O)C2CCCCC2)cc1,–,inactive: -18.3%
Oc1c(Br)cc(Br)cc1/C=N/NC(=S)N[C@H]1CC2C=CC1C2 (stereo partly specified),active: 20.6 µM,–
O=C(NC(=S)Nc1ccc2oc(=O)ccc2c1)c1ccco1,–,inactive: 17.2%
CCNc1c(NS(=O)(=O)c2ccc(OC)c(Cl)c2)c(=O)oc2ccccc12,"inconclusive: 29.1 µM [cytotoxic, single point]",–
N/C(=N\OC(=O)c1ccccc1Cl)c1cccc([N+](=O)[O-])c1,–,inactive: 8.73%
CC(C)NC(=O)c1c(O)c2cccc3c2n(c1=O)CCC3,–,inactive: 1.52%
COc1ccc(OC)c(C(=O)c2ccc(C(=O)Nc3ccc(NC(C)=O)cc3)cc2)c1,"inconclusive: 18.4 µM [cytotoxic, single point]",–
CCOC(=O)C1(Cc2ccc(OC)cc2)CCN(C(=O)c2cc(C)nn2C)CC1,active: 14.6 µM,–
O=C1c2ccccc2NC(c2ccc(O)c(O)c2)N1c1ccccc1Cl (stereo unspecified),–,inactive: -5.11%
CC(=O)c1ccc2c(c1)C1C=CCC1C(C(=O)O)N2 (stereo unspecified),–,inactive: -0.815%
Cc1ccc(C(=O)NNC(=O)c2ccc3ncccc3c2)cc1,"inconclusive: 11.6 µM [rising, partial curve]",–
O=C(CCc1c[nH]c2ccccc12)N1CCN(c2ccc(O)cc2)CC1,active: 13 µM,–
COc1ccccc1N1CCN(C(=O)c2cc3c(s2)-c2ccccc2OC3)CC1,"inconclusive: 29.1 µM [cytotoxic, single point]",–
Cc1ccc(C)c(N2CCN(CC3CC=CCC3)CC2)c1 (stereo unspecified),"inconclusive: 35.5 µM [cytotoxic, single point]",–
COc1ccc(-c2cc(=O)c(C(=O)c3ccc(C)cc3)n[nH]2)cc1,–,inactive: -1.84%
CN[C@H]1C[C@H]2c3[nH]c4ccc(-c5ccc(OC)cc5)cc4c3CCN2C(=O)[C@H]1[C@H](C)O,active: 13 µM,–
COc1cccc(/C=N/Nc2nc3ccccc3[nH]2)c1O,active: 11.6 µM,–
O=C(COC(=O)c1ccccc1C(=O)c1ccc(Cl)c([N+](=O)[O-])c1)NC1CC1,active: 4.61 µM,–
COc1ccc(C(=O)Nc2ccc(S(=O)(=O)N(C)c3ccccc3)cc2)cc1,"inconclusive: 11.6 µM [cytotoxic, partial curve, poor fit]",–

SMILES,Potency,"activity, negative = toxicity"
CCOc1ccccc1CNC(=O)C1CCN(c2nnc(C)c3c(C)n(-c4ccc(C)cc4)nc23)CC1,active: 13 µM,–
CN(C(=O)COc1ccc(S(=O)(=O)N2CCOCC2)cc1[N+](=O)[O-])C1CCS(=O)(=O)C1 (stereo unspecified),–,inactive: 14.3%
CC1CC(C)(C)NC(=S)N1CCC(=O)N1CCc2ccccc21 (stereo unspecified),–,inactive: -13.1%
CC(=O)NCc1ccc(C(=O)CCl)s1,"inconclusive: 25.9 µM [cytotoxic, single point]",–
COCCC(=O)N1CCC(Oc2ccc(C(=O)N(C)C3CCCCC3)cc2)CC1,–,inactive: 5.19%
COc1ccccc1Nc1nc(-c2c(C)nc3ncccn23)cs1,active: 20.6 µM,–
O=C1C=C(Nc2ccc(Cl)cc2)CC(c2ccccc2)C1 (stereo unspecified),active: 9.2 µM,–
N#C/C(=C\c1cccc(O)c1)C(=O)N1CCCCC1,–,inactive: -10.7%
COc1cc(OC)c(NC(=O)/C=C/C(=O)O)cc1Cl,–,inactive: 9.52%
O=C(Nc1ccc(Oc2ccc(C(F)(F)F)cn2)c(Cl)c1)C1CC1,"inconclusive: 29.1 µM [cytotoxic, single point]",–
COc1ccc(C(C)=O)cc1Cn1c(C)c(C(=O)NCc2ccc3c(c2)OCO3)sc1=O,–,inactive: 5.41%
Cc1nc(SC(C)C(=O)NCC2CCCO2)c2cc(-c3ccccc3)sc2n1 (stereo unspecified),"inconclusive: 23.1 µM [cytotoxic, partial curve]",–
CCCS(=O)(=O)NC(=O)C1(C)CCN(C(=O)c2cc(-c3cccs3)oc2C)C1 (stereo unspecified),–,inactive: 14.5%
CN(C)CCCNc1oc(-c2ccc(Cl)cc2)nc1C#N,"inconclusive: 20.6 µM [cytotoxic, single point]",–
C=CC[C@H](CC(=O)N(CCO)Cc1ccccc1)C(=O)N[C@H](COC(=O)[C@@H](CC=C)CC(=O)OC(C)(C)C)Cc1ccccc1,"inconclusive: 23.1 µM [cytotoxic, single point]",–
CCC1=Nc2cc(C(=O)NCCN3CCCC3)ccc2Sc2ccc(C)cc21,"inconclusive: 18.4 µM [cytotoxic, single point]",–
COc1cc2cc(CCCOC(=O)c3cc(OC)c(OC)c(OC)c3)oc(=O)c2cc1OC,–,inactive: 17.7%
COc1cnc(-c2ccccn2)nc1NC(C)C,"inconclusive: 5.8 µM [cytotoxic, partial curve]",–
COc1ccc(C(=O)NC(=S)Nc2ccc(CN3CCOCC3)cc2)cc1,"inconclusive: 18.4 µM [cytotoxic, single point]",–
Cc1cc(C(=O)CSc2nnc(-c3ccncc3)n2-c2ccccc2)c(C)n1C,–,inactive: -3.02%
CCN1CCCC1CN(Cc1cc2ccc(C)cc2[nH]c1=O)C(=S)Nc1ccccc1OC (stereo unspecified),"inconclusive: 20.6 µM [cytotoxic, single point]",–
COC(=O)[C@@]12C[C@@H](CC(=O)NCCCCc3ccccc3)C(=O)N(Cc3ccccc3)C1=CCC(C)(C)C2,"inconclusive: 29.1 µM [cytotoxic, single point]",–
Cc1ccc(CNC(=O)NCc2ccccc2)cc1,–,inactive: 11.7%
COc1cc(OC)nc(Nc2nc(C(N)Cc3ccccc3)cs2)n1 (stereo unspecified),"inconclusive: 29.1 µM [cytotoxic, single point]",–
